{"source": "the supplement of paper PMC8728848", "experiment_in_all_cases": "glycan array binding signal (z-score within array); higher = stronger binding", "details_in_all_cases": "glycan notation: IUPAC condensed, linker removed", "key": {"[1]": {"target": "Fuc(a1-3)[Gal(b1-4)]GlcNAc6S", "in_short": "(§1)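 Glycan array binding is given as a within-array Z-score, which can be read as non-binding when negative. The arrays, 3228 of them, came from the Consortium for Functional Glycomics database and were retained only where the protein sequence was available. Z-scores were averaged across arrays of the same protein sequence at different concentrations or buffers and across linkers.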"}, "[2]": {"target": "Fuc(a1-3)[Gal3S(b1-4)]Glc", "in_short": "as §1"}, "[3]": {"target": "Fuc(a1-3)[Gal3S(b1-4)]Glc6S", "in_short": "as §1"}, "[4]": {"target": "Fuc(a1-3)[Gal3S(b1-4)]GlcNAc", "in_short": "as §1"}, "[5]": {"target": "Fuc(a1-3)[Gal3S(b1-4)]GlcNAc6S", "in_short": "as §1"}, "[6]": {"target": "Fuc(a1-3)[GalNAc(b1-4)]GlcNAc", "in_short": "as §1"}, "[7]": {"target": "Fuc(a1-3)[GalNAc(b1-4)]GlcNAc6S", "in_short": "as §1"}, "[8]": {"target": "Fuc(a1-3)[Neu5Ac(a2-3)]Gal(b1-4)GlcNAc(b1-3)GalNAc", "in_short": "as §1"}, "Fuc(a1-4)GlcNAc": {"target": "Fuc(a1-4)GlcNAc", "in_short": "as §1"}, "Fuc(b1-3)GlcNAc": {"target": "Fuc(b1-3)GlcNAc", "in_short": "as §1"}, "Gal(a1-2)Gal": {"target": "Gal(a1-2)Gal", "in_short": "as §1"}, "Gal(a1-3)Gal": {"target": "Gal(a1-3)Gal", "in_short": "as §1"}, "Gal(a1-3)Gal(b1-3)GlcNAc": {"target": "Gal(a1-3)Gal(b1-3)GlcNAc", "in_short": "as §1"}, "[9]": {"target": "Gal(a1-3)Gal(b1-3)GlcNAc(b1-2)Man", "in_short": "as §1"}, "[10]": {"target": "Gal(a1-3)Gal(b1-3)GlcNAc(b1-2)Man(a1-3)[Gal(a1-3)Gal(b1-3)GlcNAc(b1-2)Man(a1-6)]Man(b1-4)GlcNAc(b1-4)GlcNAc", "in_short": "as §1"}, "[11]": {"target": "Gal(a1-3)Gal(b1-3)GlcNAc(b1-3)GalNAc", "in_short": "as §1"}, "[12]": {"target": "Gal(a1-3)Gal(b1-3)GlcNAc(b1-6)GalNAc", "in_short": "as §1"}, "[13]": {"target": "Gal(a1-3)Gal(b1-3)[Fuc(a1-4)]GlcNAc(b1-2)Man(a1-3)[Gal(a1-3)Gal(b1-3)[Fuc(a1-4)]GlcNAc(b1-2)Man(a1-6)]Man(b1-4)GlcNAc(b1-4)GlcNAc", "in_short": "as §1"}, "Gal(a1-3)Gal(b1-4)Glc": {"target": "Gal(a1-3)Gal(b1-4)Glc", "in_short": "as §1"}, "Gal(a1-3)Gal(b1-4)GlcNAc": {"target": "Gal(a1-3)Gal(b1-4)GlcNAc", "in_short": "as §1"}, "[14]": {"target": "Gal(a1-3)Gal(b1-4)GlcNAc(b1-2)Man", "in_short": "as §1"}, "[15]": {"target": "Gal(a1-3)Gal(b1-4)GlcNAc(b1-2)Man(a1-3)[Gal(a1-3)Gal(b1-4)GlcNAc(b1-2)Man(a1-6)]Man(b1-4)GlcNAc(b1-4)GlcNAc", "in_short": "as §1"}, "[16]": {"target": "Gal(a1-3)Gal(b1-4)GlcNAc(b1-3)GalNAc", "in_short": "as §1"}, "[17]": {"target": "Gal(a1-3)Gal(b1-4)GlcNAc(b1-6)GalNAc", "in_short": "as §1"}, "[18]": {"target": "Gal(a1-3)Gal(b1-4)[Fuc(a1-3)]GlcNAc", "in_short": "as §1"}, "[19]": {"target": "Gal(a1-3)Gal(b1-4)[Fuc(a1-3)]GlcNAc(b1-2)Man(a1-3)[Gal(a1-3)Gal(b1-4)[Fuc(a1-3)]GlcNAc(b1-2)Man(a1-6)]Man(b1-4)GlcNAc(b1-4)GlcNAc", "in_short": "as §1"}, "Gal(a1-3)GalNAc": {"target": "Gal(a1-3)GalNAc", "in_short": "as §1"}, "[20]": {"target": "Gal(a1-3)[Gal(a1-4)]Gal(b1-4)GlcNAc", "in_short": "as §1"}, "[21]": {"target": "Gal(a1-4)Gal(b1-3)GlcNAc(b1-2)Man(a1-3)[Gal(a1-4)Gal(b1-3)GlcNAc(b1-2)Man(a1-6)]Man(b1-4)GlcNAc(b1-4)GlcNAc", "in_short": "as §1"}, "Gal(a1-4)Gal(b1-4)Glc": {"target": "Gal(a1-4)Gal(b1-4)Glc", "in_short": "as §1"}, "Gal(a1-4)Gal(b1-4)GlcNAc": {"target": "Gal(a1-4)Gal(b1-4)GlcNAc", "in_short": "as §1"}, "[22]": {"target": "Gal(a1-4)Gal(b1-4)GlcNAc(b1-2)Man(a1-3)[Gal(a1-4)Gal(b1-4)GlcNAc(b1-2)Man(a1-6)]Man(b1-4)GlcNAc(b1-4)GlcNAc", "in_short": "as §1"}, "[23]": {"target": "Gal(a1-4)Gal(b1-4)GlcNAc(b1-3)Gal(b1-4)Glc", "in_short": "as §1"}, "Gal(a1-4)GlcNAc": {"target": "Gal(a1-4)GlcNAc", "in_short": "as §1"}, "Gal(a1-6)Glc": {"target": "Gal(a1-6)Glc", "in_short": "as §1"}, "Gal(b1-2)Gal": {"target": "Gal(b1-2)Gal", "in_short": "as §1"}, "Gal(b1-3)Gal": {"target": "Gal(b1-3)Gal", "in_short": "as §1"}, "Gal(b1-3)Gal(b1-4)GlcNAc": {"target": "Gal(b1-3)Gal(b1-4)GlcNAc", "in_short": "as §1"}}, "note": "The other results are listed elsewhere or left out.", "data": [{"binder": "HPA (Helix pomatia), Q575S3 (protein) MWAHLTGLLLICALSLSAAQRAQTGEIDCGSDSSWPKDPSDNPNRDNTREIVKHVTFSPQFCREPKVILSVTTLDAEHTKNLRYEARLKSVSPSGLSASCYSWHDGTIYRMKLSWLAVED", "values": [{"measurement": "glycan array binding signal (z-score)", "setting": "[1]", "result": -0.254}, {"measurement": "glycan array binding signal (z-score)", "setting": "[2]", "result": -0.25}, {"measurement": "glycan array binding signal (z-score)", "setting": "[3]", "result": -0.296}, {"measurement": "glycan array binding signal (z-score)", "setting": "[4]", "result": -0.264}, {"measurement": "glycan array binding signal (z-score)", "setting": "[5]", "result": -0.249}, {"measurement": "glycan array binding signal (z-score)", "setting": "[6]", "result": -0.257}, {"measurement": "glycan array binding signal (z-score)", "setting": "[7]", "result": -0.252}, {"measurement": "glycan array binding signal (z-score)", "setting": "[8]", "result": -0.247}, {"measurement": "glycan array binding signal (z-score)", "setting": "Fuc(a1-4)GlcNAc", "result": -0.265}, {"measurement": "glycan array binding signal (z-score)", "setting": "Fuc(b1-3)GlcNAc", "result": -0.261}, {"measurement": "glycan array binding signal (z-score)", "setting": "Gal(a1-2)Gal", "result": -0.263}, {"measurement": "glycan array binding signal (z-score)", "setting": "Gal(a1-3)Gal", "result": -0.254}, {"measurement": "glycan array binding signal (z-score)", "setting": "Gal(a1-3)Gal(b1-3)GlcNAc", "result": -0.256}, {"measurement": "glycan array binding signal (z-score)", "setting": "[9]", "result": -0.26}, {"measurement": "glycan array binding signal (z-score)", "setting": "[10]", "result": -0.235}, {"measurement": "glycan array binding signal (z-score)", "setting": "[11]", "result": -0.236}, {"measurement": "glycan array binding signal (z-score)", "setting": "[12]", "result": -0.264}, {"measurement": "glycan array binding signal (z-score)", "setting": "[13]", "result": -0.233}, {"measurement": "glycan array binding signal (z-score)", "setting": "Gal(a1-3)Gal(b1-4)Glc", "result": -0.261}, {"measurement": "glycan array binding signal (z-score)", "setting": "Gal(a1-3)Gal(b1-4)GlcNAc", "result": -0.261}, {"measurement": "glycan array binding signal (z-score)", "setting": "[14]", "result": -0.248}, {"measurement": "glycan array binding signal (z-score)", "setting": "[15]", "result": -0.238}, {"measurement": "glycan array binding signal (z-score)", "setting": "[16]", "result": -0.251}, {"measurement": "glycan array binding signal (z-score)", "setting": "[17]", "result": -0.255}, {"measurement": "glycan array binding signal (z-score)", "setting": "[18]", "result": -0.27}, {"measurement": "glycan array binding signal (z-score)", "setting": "[19]", "result": -0.245}, {"measurement": "glycan array binding signal (z-score)", "setting": "Gal(a1-3)GalNAc", "result": -0.217}, {"measurement": "glycan array binding signal (z-score)", "setting": "[20]", "result": 0.059}, {"measurement": "glycan array binding signal (z-score)", "setting": "[21]", "result": -0.232}, {"measurement": "glycan array binding signal (z-score)", "setting": "Gal(a1-4)Gal(b1-4)Glc", "result": -0.257}, {"measurement": "glycan array binding signal (z-score)", "setting": "Gal(a1-4)Gal(b1-4)GlcNAc", "result": -0.261}, {"measurement": "glycan array binding signal (z-score)", "setting": "[22]", "result": -0.222}, {"measurement": "glycan array binding signal (z-score)", "setting": "[23]", "result": -0.258}, {"measurement": "glycan array binding signal (z-score)", "setting": "Gal(a1-4)GlcNAc", "result": -0.265}, {"measurement": "glycan array binding signal (z-score)", "setting": "Gal(a1-6)Glc", "result": -0.266}, {"measurement": "glycan array binding signal (z-score)", "setting": "Gal(b1-2)Gal", "result": -0.259}, {"measurement": "glycan array binding signal (z-score)", "setting": "Gal(b1-3)Gal", "result": -0.259}, {"measurement": "glycan array binding signal (z-score)", "setting": "Gal(b1-3)Gal(b1-4)GlcNAc", "result": -0.251}]}]}
